Source: article PMC4336329 (PLoS ONE, 2015)
The whole screen tested about 310,000 compounds, of which about 2,200 (0.71%) showed an effect of 50% or more. Effects have a minus sign here. Some of the results follow.

Target: human ether-à-go-go-related gene (hERG) potassium channel (human, UniProt Q12809)
Test: primary screen, population patch clamp on CHO cells stably expressing hERG

Sequence of human ether-à-go-go-related gene (hERG) potassium channel (Q12809 whole entry, looked up): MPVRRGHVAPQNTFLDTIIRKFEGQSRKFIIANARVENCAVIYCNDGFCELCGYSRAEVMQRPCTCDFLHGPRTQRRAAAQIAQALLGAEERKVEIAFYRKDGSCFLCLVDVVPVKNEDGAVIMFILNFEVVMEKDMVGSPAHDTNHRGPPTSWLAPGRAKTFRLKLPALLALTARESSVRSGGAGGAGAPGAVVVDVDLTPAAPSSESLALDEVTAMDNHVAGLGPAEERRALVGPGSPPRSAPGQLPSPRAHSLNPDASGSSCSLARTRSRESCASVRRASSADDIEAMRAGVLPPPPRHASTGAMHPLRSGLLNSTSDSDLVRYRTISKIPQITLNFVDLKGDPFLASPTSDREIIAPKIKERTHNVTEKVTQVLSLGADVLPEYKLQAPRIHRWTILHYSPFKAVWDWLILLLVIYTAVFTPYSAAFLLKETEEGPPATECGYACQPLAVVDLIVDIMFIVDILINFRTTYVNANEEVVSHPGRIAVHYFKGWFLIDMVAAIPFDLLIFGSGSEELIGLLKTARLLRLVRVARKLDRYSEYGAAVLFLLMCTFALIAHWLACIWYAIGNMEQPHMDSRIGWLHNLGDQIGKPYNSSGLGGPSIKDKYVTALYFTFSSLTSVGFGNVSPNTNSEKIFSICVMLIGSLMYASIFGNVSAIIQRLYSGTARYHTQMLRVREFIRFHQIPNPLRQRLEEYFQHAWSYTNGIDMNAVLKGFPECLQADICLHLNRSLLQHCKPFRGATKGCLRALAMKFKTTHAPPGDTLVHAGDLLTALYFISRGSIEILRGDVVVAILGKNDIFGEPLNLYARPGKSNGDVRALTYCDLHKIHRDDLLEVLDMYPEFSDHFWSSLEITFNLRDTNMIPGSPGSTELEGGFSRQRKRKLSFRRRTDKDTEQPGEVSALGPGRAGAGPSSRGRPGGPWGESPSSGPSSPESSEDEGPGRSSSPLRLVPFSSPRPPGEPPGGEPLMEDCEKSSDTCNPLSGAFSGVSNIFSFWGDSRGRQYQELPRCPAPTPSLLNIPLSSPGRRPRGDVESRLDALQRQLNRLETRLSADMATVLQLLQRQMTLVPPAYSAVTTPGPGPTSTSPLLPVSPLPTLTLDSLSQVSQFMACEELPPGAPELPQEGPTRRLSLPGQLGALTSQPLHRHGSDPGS

| SMILES | hERG current change (%, negative = inhibition) at 1uM [%] |
| --- | --- |
| CCc1cc(CC)c(/C=N/NC(N)=O)c(CC)c1/C=N/NC(N)=O | 14.3 |
| CC(C)CN1CCN(Cc2cccc3nccnc23)CC1CCO (centres unmarked) | 3.17 |
| O=C(O)c1nn(-c2cccc(C(F)(F)F)c2)ccc1=O | 15.1 |
| O=C(c1ccc(Cl)s1)N1CCOCC1 | 14.1 |
| CCOCc1[nH]c(=S)[nH]c(=O)c1Cc1ccc(OC(C)C)cc1 | 0.356 |
| COc1ccc(Nc2ncc(C(=O)N3CCN(c4ccccc4OC)CC3)c3ccccc23)cc1 | 3.52 |
| COc1ccc2ccc(OCC(=O)Nc3cc(C)on3)cc2c1 | 15.9 |
| Br.O=C(CN1CCSC1=NCc1ccccc1)c1ccccc1 | -0.299 |
| CCCn1nc(C(=O)NNC(=O)CSC(C)C(=O)Nc2cc(C)on2)c2ccccc2c1=O (centres unmarked) | -10.5 |
| Cc1ccc2nc(SCC(=O)NCCc3ccccc3)nc(=O)n2c1 | 18.5 |
| Cc1cc(OC(C)C(=O)NCC(O)c2ccccc2)c2c(C)c(C)c(=O)oc2c1 (centres unmarked) | 16.7 |
| C=CCn1c(SCCCc2ccccc2)nc2c1c(=O)[nH]c(=O)n2C | -6.47 |
| CC(C)CNC(=O)Nc1ccccc1F | 18.1 |
| CN1CCN(C(=O)c2cc3c(C(F)(F)F)nn(C)c3s2)CC1 | 20.8 |
| FC(F)(F)c1cnc(COc2cc(Cl)cc(Cl)c2)c(Cl)c1 | 13.5 |
| CCC1CCc2c(sc(NC(=O)CSc3nc(-c4ccco4)cc(C(F)(F)F)n3)c2C#N)C1 (centres unmarked) | 13.2 |
| COC(CN(C)C(=O)c1ccc2c(c1)NC(=O)c1ccccc1S2)OC | 10.6 |
| C=CCn1c(SCC(=O)Nc2ccc3c(c2)OCO3)nnc1-c1cc(Br)ccc1O | 2.16 |
| Cn1c(=O)c2c(ncn2CC(=O)N2CCOCC2)n(C)c1=O | -5.21 |
| COc1c(C)cc(C(=O)C2CCCN(C(=O)c3csc(C)n3)C2)cc1C (centres unmarked) | 2.63 |
| Cc1ccc(NC(C)C(=O)N/N=C/c2ccc([N+](=O)[O-])s2)cc1 (centres unmarked) | 12 |
| CC(C)OC(=O)CSc1nnc(-c2ccc([N+](=O)[O-])cc2)o1 | 10.7 |

| SMILES | hERG current change (%, negative = inhibition) at 1uM [%] |
| --- | --- |
| CN(CC(=O)Nc1c(Cl)cccc1Cl)C(=O)CCc1nc2sc3c(c2c(=O)[nH]1)CCCC3 | 12.9 |
| CCCCCC(=O)Nc1cccc(C2=NOC3(C2)C[C@@H](C(N)=O)N(C(=O)c2ccc(OC)cc2)C3)c1 (some centres unmarked) | 9.3 |
| CCc1ccc(NC(=O)Cn2nnc(C(=O)NCc3ccc(OC)cc3)c2N)cc1 | 9.72 |
| Cc1cc2c(NC(=O)Nc3ccc(C(C)(C)C)cc3)cccc2nn1 | 12.2 |
| C=CCn1c(-c2cccc(OC)c2OC)n[nH]c1=S | 6.77 |
| COc1cccc(NC(=S)N(CCCN2CCN(C)CC2)Cc2ccco2)c1 | -7.46 |
| Cc1ccc(C(=O)N/C(=C/c2cccnc2)C(=O)N2CCCCCC2)cc1 | -5.61 |
| COc1ccc(Nc2nc(N)nc(CN(C)C3CCCCC3)n2)cc1 | -17.9 |
| Cc1cc(F)ccc1S(=O)(=O)Nc1ccccc1C(=O)Nc1ccc2[nH]c(=O)[nH]c2c1 | 14.7 |
| Cc1ccc(S(=O)(=O)N(CC(=O)NCc2cccnc2)C2CCCCC2)cc1 | -30.3 |
| CN(C)S(=O)(=O)c1ccc(Cl)c(NC(=O)COC(=O)c2ccc(O)cc2)c1 | 9.88 |
| O=C(CSc1nc2c(sc3ccccc32)c(=O)n1CCCN1CCOCC1)NC1CCCC1 | -26.8 |
| Cc1nc(C)c(C(=O)OCC(=O)Nc2cccc(C)c2C)s1 | 10.5 |
| Cc1nc(-c2ccc(Cl)cc2)sc1C1(C)CC(c2ccccc2)=NO1 (centres unmarked) | 15 |
| Cc1cccc(C)c1OCc1cc(C(=O)N(Cc2nccn2C)C(C)C)no1 | -11.8 |
| Cc1ccc2[nH]c(=O)c3cc(C(=O)NCCN4CCN(C)CC4)sc3c2c1 | 5.17 |
| N#CCn1cnc2c(oc3ccccc32)c1=O | 14.7 |
| COc1ccc(/C(N)=C/C(=O)C(C)(C)C)cc1 | 1.31 |
| CC(C)c1nc2sc3c(=O)[nH]cnc3c2c2c1CCCC2 | 14.1 |
| O=C(NCCNC(=O)c1ccccn1)c1cccc(F)c1 | 25 |
| CN1CCN(C(=S)c2ccc(Br)cc2)CC1 | -4.31 |
| COc1cc(OC)cc(C(=O)NC(=S)Nc2nnn(C)n2)c1 | 13 |

| SMILES | hERG current change (%, negative = inhibition) at 1uM [%] |
| --- | --- |
| CCOC(=O)c1ccc(NC(=O)NCc2ccncc2)cc1 | 2.62 |
| CCn1ccnc1CNCc1ccc(OCC(O)CN(C)Cc2ccccc2)cc1 (centres unmarked) | -2.51 |
| O=C(Nc1nc2c(s1)CCCC2)c1cc(-c2ccc3c(c2)OCO3)nc2ccccc12 | 6.39 |
| COC(=O)c1sccc1NC(=S)N1CCN(c2cc(C)ccc2C)CC1 | 14.6 |
| COc1cccc(CNCC(O)(c2ccc(Cl)cc2)c2ccc(Cl)cc2)c1 | 10.8 |
| COc1ccc(C(=O)Nc2ccccc2C(=O)NC(Cc2ccc(O)cc2)C(=O)NNC(=O)c2ccccc2Cl)cc1 (centres unmarked) | 14.8 |
| Cc1ccc(OCCCCc2c(C)n[nH]c2C)cc1 | 8.88 |
| O=C(Nc1ccc(N2CCOCC2)cc1)c1cccc(-n2cnnc2)c1 | 14.3 |
| CSc1ccc(/C=N/n2c(COc3ccccc3)n[nH]c2=S)cc1 | 8.39 |
| COCCN(CC(=O)Oc1ccccc1P(=O)(OC)OC)Cc1ccccc1 | 7.35 |
| COc1ccccc1CNC(=O)C1=C(C)C(=O)OC12CCC(C)CC2 (centres unmarked) | 7.11 |
| Cc1cccc(N2C(=O)N3[C@@H]4c5ccccc5OC[C@@H]4[C@@H](c4ccccc4)[C@@]3(C)C2=O)c1 | 4.76 |
| COc1ccc(C2NC(=O)CCC2[N+](=O)[O-])c(OC)c1 (centres unmarked) | 8.33 |
| CC(C)(CNC(=O)CC1C(=O)NCCN1Cc1cccc(F)c1F)N1CCOCC1 (centres unmarked) | 35.3 |
| O=C(O)c1cn(Cc2ccccc2Cl)c2ccc(S(=O)(=O)N3CCOCC3)cc2c1=O | -0.124 |
| C#Cc1ccc([C@H]2C=C(C(=O)NCc3nc4ccccc4[nH]3)O[C@@H](OCC)[C@@H]2CCCO)cc1 | -1.27 |
| CCSc1ccc(C(=O)Nc2cccc(C)n2)cc1[N+](=O)[O-] | -3.22 |
| O=C(C1=C(O)C(=O)N(c2ncccn2)C1c1cccs1)c1ccco1 (centres unmarked) | 18.5 |
| CCOC(=O)Cc1nnc(NC(=O)COc2ccc(F)cc2)s1 | 6.68 |
| COc1ccccc1C(=O)NC(=Nc1nc2ccccc2o1)NC(=O)c1ccccc1OC | 12 |
| O=C(CN1C(=O)COc2ccccc21)NNC(=O)Nc1ccccc1F | 2.21 |
| CCOC(=O)CCC(=O)Nc1ccc(S(=O)(=O)N2CCCCC2)cc1 | 1.25 |

| SMILES | hERG current change (%, negative = inhibition) at 1uM [%] |
| --- | --- |
| CCOc1ccc(C(=O)Cc2cc(OC)c(OC)cc2[N+](=O)[O-])cc1 | 6.72 |
| Cc1nc(-c2ccccn2)nc(N(C)c2ccccc2)c1Cl | 7.47 |
| O=C(Nc1ccc(F)cc1)c1ccc(NC(=O)C2CCCO2)cc1 (centres unmarked) | 12 |
| O=C1C2C3C=CC(c4ccccc4)(C2C(=O)N1c1cccc(Cl)c1)C1C(=O)N(c2cccc(Cl)c2)C(=O)C31 (centres unmarked) | 14.4 |
| COc1cc(/C=N/NC(=O)/C(=C/c2ccccc2)CCO)ccc1O | -7.37 |
| CCC(=NCc1ccccc1)c1c(C(F)(F)F)[nH]n(-c2nc3ccccc3s2)c1=O | 7.12 |
| O=C(NCc1ccccc1Cl)C1CCC(=O)N(CCCN2CCCC2=O)C1 (centres unmarked) | 11 |
| CCN(CC)C(=O)COc1ccc(/C(C)=N/NC(=O)c2ccccc2O)cc1 | 5.27 |
| Cc1nn(-c2ccccc2)c(C)c1/C=N/NC(=O)c1cc(-c2ccc(Br)s2)[nH]n1 | -3.09 |
| CCn1c(=O)c2ccccc2n2c(SCC(=O)N3CCCc4ccccc43)nnc12 | 9.6 |
| CCC1(C)Cc2ccccc2-c2nc(-c3ccccc3)oc(=O)c21 (centres unmarked) | 17.5 |
| CCCCCCCCCOC(=O)C[n+]1csc(CCO)c1C.[Cl-] | 3.14 |
| NC(=O)C1CCCN(C(=O)c2ccc3nc(Cc4cccc(Cl)c4)oc3c2)C1 (centres unmarked) | 17.5 |
| Cc1cccc(C(=O)NCCC(=O)N2CCc3ccccc3C2)c1 | 9.14 |
| N/C(=N\OC(=O)CC1CCCCC1)c1ccc(Br)cc1 | 8.39 |
| CCC(C)Sc1ccc(-c2nc3cnccn3c2NC2CCCCC2)cc1.O=C(O)C(F)(F)F (centres unmarked) | 12.6 |
| CCOC(=O)c1ccc(NS(=O)(=O)c2ccc3c(c2)oc(=O)n3C)cc1 | 7.64 |
| Cc1nc(C)c(C(=O)NCc2ccc(Cl)cc2)o1 | -3.81 |
| O=C(O)c1ccc(N2CCN(C(c3ccccc3)c3ccccc3)CC2)c([N+](=O)[O-])c1 | 13 |
| Cc1ccc(C)c(NC(=S)NC(NC(=O)N(C)C)C(Cl)(Cl)Cl)c1 (centres unmarked) | 2.87 |
